“And” between values parts separate entries of the source, which are not always exact repeats. Equal entries are not always repeated. Among all 3,200 compounds or so, about 300 (9.4%) showed activity. The entries are a selection whose mix differs from that of the whole data set.

The subject of this assay is A673/TR/shEF. The assay can be described thus: cell viability (LOESS-normalised, relative to median of negative controls) (log2 ratio); higher = more viable cells (less compound effect), active = hit call of the paper (over 3 MAD below the median). As to conditions: treatment time: 72 h. The method in brief:
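Viability of A673/TR/shEF Ewing sarcoma cells was determined by CellTiter-Glo luminescence. The cells, at 1,500 per well in 384-well plates, were grown with or without doxycycline from 24 h before compound addition to switch on EWS-FLI1 shRNA knockdown, then exposed for three days to library compounds at two or more concentrations or to DMSO controls. Signals were LOESS-corrected plate by plate, normalised to the negative-control median and log2-transformed.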

[1] abbreviates: 0.25 µM, library screen: screen1, EWS-FLI1 expression: high (no doxycycline).
Where [2] appears, read: 0.25 µM, library screen: screen1, EWS-FLI1 expression: low (doxycycline-induced shRNA knockdown).
Where [3] appears, read: 0.25 µM, library screen: screen2, EWS-FLI1 expression: high (no doxycycline).
Setting [4] is: 0.25 µM, library screen: screen2, EWS-FLI1 expression: low (doxycycline-induced shRNA knockdown).
The mark [5] stands for this setting: 2.5 µM, library screen: screen1, EWS-FLI1 expression: high (no doxycycline).
The mark [6] stands for this setting: 2.5 µM, library screen: screen1, EWS-FLI1 expression: low (doxycycline-induced shRNA knockdown).
The mark [7] stands for this setting: 2.5 µM, library screen: screen2, EWS-FLI1 expression: high (no doxycycline).
Setting [8] is: 2.5 µM, library screen: screen2, EWS-FLI1 expression: low (doxycycline-induced shRNA knockdown).
Setting [9] is: 0.103 µM, library screen: screen3, EWS-FLI1 expression: high (no doxycycline).
Where [10] appears, read: 0.103 µM, library screen: screen3, EWS-FLI1 expression: low (doxycycline-induced shRNA knockdown).
[11] abbreviates: 0.308 µM, library screen: screen3, EWS-FLI1 expression: high (no doxycycline).
The mark [12] stands for this setting: 0.308 µM, library screen: screen3, EWS-FLI1 expression: low (doxycycline-induced shRNA knockdown).
[13] abbreviates: 0.926 µM, library screen: screen3, EWS-FLI1 expression: high (no doxycycline).
[14] abbreviates: 0.926 µM, library screen: screen3, EWS-FLI1 expression: low (doxycycline-induced shRNA knockdown).
Setting [15] is: 2.8 µM, library screen: screen3, EWS-FLI1 expression: high (no doxycycline).
Where [16] appears, read: 2.8 µM, library screen: screen3, EWS-FLI1 expression: low (doxycycline-induced shRNA knockdown).
[17] abbreviates: 8.3 µM, library screen: screen3, EWS-FLI1 expression: high (no doxycycline).
Where [18] appears, read: 8.3 µM, library screen: screen3, EWS-FLI1 expression: low (doxycycline-induced shRNA knockdown).
Where [19] appears, read: 25 µM, library screen: screen3, EWS-FLI1 expression: high (no doxycycline).
The mark [20] stands for this setting: 25 µM, library screen: screen3, EWS-FLI1 expression: low (doxycycline-induced shRNA knockdown).

On to `Cc1c(C(N)=O)cc([N+](=O)[O-])cc1[N+](=O)[O-]`, for which the “cell viability (log2)” value is inactive: 0.00602 (0.025 µM, library screen: screen2, EWS-FLI1 expression: high (no doxycycline)); inactive: 0.102 (0.025 µM, library screen: screen2, EWS-FLI1 expression: low (doxycycline-induced shRNA knockdown)); inactive: -0.0201 under setting [1]; inactive: 0.0034 under setting [2]; inactive: 0.0677 under setting [3]; inactive: 0.0234 under setting [4]. The “cell viability (log2)” value under setting [5] is inactive: 0.0318; the “cell viability (log2)” value under setting [6] was inactive: 0.0671; the “cell viability (log2)” value under setting [7] was inactive: 0.116; the “cell viability (log2)” value under setting [8] was inactive: 0.0743; the “cell viability (log2)” value (25 µM, library screen: screen2, EWS-FLI1 expression: high (no doxycycline)) is inactive: 0.174; the “cell viability (log2)” value (25 µM, library screen: screen2, EWS-FLI1 expression: low (doxycycline-induced shRNA knockdown)) is inactive: 0.0849.

Take `COc1ccc(C2C(=O)c3ccccc3C2=O)cc1`: the “cell viability (log2)” value by setting is: under setting [1], inactive: 0.0954; under setting [2], inactive: -0.0583; under setting [5], inactive: 0.177; under setting [6], inactive: -0.135.

With `Cc1cccc(C)c1NC(=O)C1CCCCN1C` (stereo not drawn), the “cell viability (log2)” value under setting [1] was inactive: 0.138, the “cell viability (log2)” value under setting [2] is inactive: 0.0396, the “cell viability (log2)” value under setting [5] is inactive: 0.1 and the “cell viability (log2)” value under setting [6] is inactive: 0.0981.

Take `CCC(=O)OC1[C@@H]2CC3=C4CC(=O)O[C@@H](c5ccoc5)[C@]4(C)CCC3[C@@](C)(C2=O)[C@@H](CC(=O)OC)C1(C)C` (stereo partly drawn): the “cell viability (log2)” value is, setting by setting: under setting [1], inactive: 0.0873; under setting [2], inactive: -0.00184; under setting [5], inactive: 0.0649; under setting [6], inactive: 0.122.

`C=C/C(C)=C\C[C@@H]1[C@@]2(C)CCCC(C)(C)[C@@H]2CC[C@@]1(C)O`: the “cell viability (log2)” value runs as follows: under setting [1], inactive: 0.0522; under setting [2], inactive: 0.0309; under setting [5], inactive: 0.126; under setting [6], inactive: 0.0611.

Take `COC(=O)C[C@H]1C(C)(C)C(=O)[C@@H]2CC3=C(CC[C@]4(C)C3=CC(=O)O[C@H]4c3ccoc3)[C@@]1(C)C2=O`: the “cell viability (log2)” value was inactive: 0.0103 under setting [1], inactive: 0.0637 under setting [2], inactive: 0.0609 under setting [5] and inactive: 0.0818 under setting [6].

Regarding `O=C(Nc1ccccc1)c1ccccc1O`, the “cell viability (log2)” value under setting [1] was inactive: 0.0823, the “cell viability (log2)” value under setting [2] was inactive: 0.0564, the “cell viability (log2)” value under setting [5] is inactive: 0.028 and the “cell viability (log2)” value under setting [6] was inactive: 0.0434.

Take `CS(=O)(=O)c1ccc(C2=C(c3ccccc3)C(=O)OC2)cc1`: the “cell viability (log2)” value runs as follows: under setting [1], inactive: 0.0474; under setting [2], inactive: -0.00424; under setting [5], inactive: 0.131; under setting [6], inactive: -0.0334.

In the case of `CCC/C=C1\OC(=O)C2=C1CCC=C2`, the “cell viability (log2)” value reads like this: under setting [1], inactive: 0.162; under setting [2], inactive: 0.149; under setting [5], inactive: 0.218; under setting [6], inactive: 0.211.

In the case of `Cn1c(=O)c2[nH]cnc2n(C)c1=O`, the “cell viability (log2)” value under setting [9] was inactive: 0.139; the “cell viability (log2)” value under setting [10] was inactive: 0.0982; the “cell viability (log2)” value under setting [1] was inactive: 0.0899; the “cell viability (log2)” value under setting [2] was inactive: 0.0721; the “cell viability (log2)” value under setting [3] is inactive: 0.105 and inactive: -0.0181; the “cell viability (log2)” value under setting [4] is inactive: 0.0369 and inactive: 0.0406. Moreover, the “cell viability (log2)” value runs as follows: under setting [11], inactive: 0.11; under setting [12], inactive: 0.14; under setting [13], inactive: 0.146; under setting [14], inactive: 0.0819; under setting [5], inactive: 0.127; under setting [6], inactive: 0.0623. The “cell viability (log2)” value is inactive: 0.259 and inactive: 0.0738 under setting [7]; inactive: 0.0969 and inactive: 0.00951 under setting [8]; inactive: 0.155 under setting [15]; inactive: 0.129 under setting [16]; inactive: 0.11 under setting [17]; inactive: 0.0762 under setting [18]. Further, the “cell viability (log2)” value under setting [19] was inactive: 0.117 and the “cell viability (log2)” value under setting [20] was inactive: 0.0984.

Regarding `NC(N)=NCCC[C@H](N[C@H](CCC(=O)O)C(=O)O)C(=O)O`, the “cell viability (log2)” value is inactive: 0.0848 under setting [1], inactive: 0.0238 under setting [2], inactive: 0.123 under setting [5] and inactive: 0.0291 under setting [6].

With `Cc1ccnc2c1NC(=O)c1cccnc1N2C1CC1`, the “cell viability (log2)” value is, setting by setting: under setting [9], inactive: 0.0685; under setting [10], inactive: 0.0211; under setting [11], inactive: 0.0056; under setting [12], inactive: 0.117; under setting [13], inactive: 0.0577; under setting [14], inactive: 0.0639. Also, the “cell viability (log2)” value runs as follows: under setting [15], inactive: 0.00114; under setting [16], inactive: 0.0574; under setting [17], inactive: 0.0246; under setting [18], inactive: 0.0388; under setting [19], inactive: 0.0765; under setting [20], inactive: 0.0526.

With `CN(C)CCC=C1c2ccccc2CCc2ccccc21`, the “cell viability (log2)” value reads like this: under setting [1], inactive: 0.0816; under setting [2], inactive: 0.086; under setting [3], active: -0.148; under setting [4], inactive: 0.138; under setting [5], inactive: 0.144; under setting [6], inactive: 0.0763. Further, the “cell viability (log2)” value under setting [7] is inactive: 0.0454 and the “cell viability (log2)” value under setting [8] was inactive: 0.0908.

On to `Cc1[nH]c(=O)c(C#N)cc1-c1ccncc1`, for which the “cell viability (log2)” value under setting [9] was inactive: 0.0326; the “cell viability (log2)” value under setting [10] was inactive: 0.119; the “cell viability (log2)” value under setting [3] was inactive: 0.0624; the “cell viability (log2)” value under setting [4] was inactive: 0.0852; the “cell viability (log2)” value under setting [11] was inactive: 0.14; the “cell viability (log2)” value under setting [12] was inactive: 0.0767. Besides, the “cell viability (log2)” value was inactive: 0.132 under setting [13]; inactive: 0.0633 under setting [14]; inactive: 0.155 under setting [7]; inactive: 0.096 under setting [8]; inactive: 0.139 under setting [15]; inactive: 0.0633 under setting [16]. The “cell viability (log2)” value by setting is: under setting [17], inactive: 0.128; under setting [18], inactive: 0.0675; under setting [19], inactive: 0.148; under setting [20], inactive: 0.0407.

Turning to `CC(C)[C@H](CO)Nc1nc(Nc2cccc(Cl)c2)c2ncn(C(C)C)c2n1`, the “cell viability (log2)” value under setting [3] is inactive: 0.136, the “cell viability (log2)” value under setting [4] was inactive: 0.0723, the “cell viability (log2)” value under setting [7] is inactive: 0.0529 and the “cell viability (log2)” value under setting [8] was inactive: 0.0514.

As for `NC(=O)c1ncn([C@@H]2O[C@H](CO)[C@@H](O)[C@H]2O)n1`, the “cell viability (log2)” value was inactive: 0.0479 under setting [9]; inactive: -0.00301 under setting [10]; inactive: 0.0242 under setting [1]; inactive: -0.0375 under setting [2]; inactive: 0.0942 under setting [3]; inactive: 0.138 under setting [4]. In addition, the “cell viability (log2)” value was inactive: 0.00539 under setting [11]; inactive: 0.013 under setting [12]; inactive: 0.012 under setting [13]; inactive: 0.0638 under setting [14]; inactive: 0.0898 under setting [5]; inactive: -0.0568 under setting [6]. For the same compound, the “cell viability (log2)” value runs as follows: under setting [7], inactive: 0.148; under setting [8], inactive: 0.053; under setting [15], inactive: -0.0142; under setting [16], inactive: -0.0276; under setting [17], inactive: 0.0371; under setting [18], inactive: 0.0291. In addition, the “cell viability (log2)” value runs as follows: under setting [19], inactive: 0.13; under setting [20], inactive: 0.0392.

Values taken from the supplement of paper PMC6089552.
